Results on 89 compounds are retold here after PubChem BioAssay AID463173 (ICCB-Longwood Screening Facility, Harvard Medical School, 2010).

Among all 52,000 compounds or so, about 1,700 (3.3%) were called active. Cut-off read from the data, not from the text of the source: active = survival mostly below about 52% (no sharp cut-off); inactive = mostly above about 56%. The list shows a part of the results.

The subject of the assay is Wild type. The experiment in a line: growth inhibition of S. aureus wild type versus tarO mutant, primary screen, teichoic acid synthesis inhibitors, RN4220, OD600 (AID 463173). As to conditions: S. aureus RN4220 wild type/DeltatarO growth, OD600, 18 h, stronger effect = lower value, screened at 18.75 µg/mL (by protocol).
`CCc1ccc(Cn2c(CNS(=O)(=O)c3ccc(Cl)s3)nc3cccnc32)cc1`: the survival was inactive: 53%.

Regarding `CCOC(=O)c1cc2c(=O)n3ccccc3nc2n(CC2CCCO2)c1=NC(=O)c1ccccc1F` (centres undefined), the survival is inactive: 74%.

With `COc1ccc(CNC(=O)C(C)n2nc(C)c3sc4ccccc4c3c2=O)cc1OC` (centres undefined), the survival is inactive: 89%.

With `Cc1ccccc1NC(=O)CSc1nnc(-c2cccc(Cl)c2)o1`, the survival is inactive: 82%.

With `Cc1nn2c(=O)cc(COC(=O)c3ccc(NC(=O)c4ccc(C(C)(C)C)cc4)cc3)nc2s1`, the survival was inactive: 74%.

With `Cc1csc2nc(-c3cccc(NC(=O)c4ccccc4F)c3)cn12`, the survival is inactive: 134%.

Consider `CCOc1ccc(NC(=O)c2noc3c2CSc2ccccc2-3)cc1`, for which the survival is inactive: 84%.

On to `O=C(NCc1ccc(Cl)cc1)C1CCN(S(=O)(=O)c2ccc3c(c2)CCCN3C(=O)C2CCC2)CC1`, for which the survival is inactive: 73%.

Turning to `O=C(CSc1nc(O)c(C/C=C/c2ccccc2)c(=O)[nH]1)Nc1cccc(F)c1`, the survival is inactive: 65%.

For `CC(C)(C)c1ccc(S(=O)(=O)N2CCN(C(=O)c3cc(-c4ccc(Br)cc4)n[nH]3)CC2)cc1`, the survival is inactive: 131%.

On to `O=C(Nc1ccc2oc(-c3cc(Br)ccc3Cl)nc2c1)c1ccc2ccccc2c1`, for which the survival is inactive: 73%.

`COc1cccc(CNC(=O)c2nnc(Cc3ccc(Cl)cc3)o2)c1`: the survival is inactive: 79%.

Turning to `CCOCCc1nn2c(=O)cc(COC(=O)c3ccco3)nc2s1`, the survival was inactive: 85%.

Turning to `COc1cc(-c2noc(-c3ccc(N4CCCCC4)c([N+](=O)[O-])c3)n2)cc(OC)c1OC`, the survival is inactive: 86%.

In the case of `Cc1ccc(NC(=O)NC2CCN(C(=O)N3CCOCC3)CC2)cc1`, the survival was inactive: 102%.

In the case of `COc1ccc(-c2cc(C)no2)cc1S(=O)(=O)N1CC(C)Oc2ccccc21` (centres undefined), the survival is active: -6%.

For `CCN1CCN(CCCNC(=O)c2ccc3c(c2)sc2nc(-c4ccc(C)cc4)cn23)CC1`, the survival was inactive: 29%.

`O=C(CSc1ccc(-c2cccs2)nn1)Nc1cccc(F)c1`: the survival was inactive: 107%.

As to `COc1cccc(N2CCN(C(=O)Cn3ncc4c(=O)oc5ccccc5c43)CC2)c1`, the survival is inactive: 86%.

As for `O=C1CC(c2cccc(F)c2)c2c(n3ncnc3[nH]c2=O)N1` (centres undefined), the survival is inactive: 77%.

`CCOC(=O)Cn1c(=O)n(C2CCCCC2)c2nc(-c3cccc(C)c3)nc(C(N)=O)c21`: the survival was inactive: 89%.

Turning to `COc1ccc(-n2c(SCC(=O)NCc3ccccc3)nc3n[nH]c(C)c3c2=N)cc1`, the survival was inactive: 74%.

As for `CCCn1c(=O)c2sccc2n2c(CCCC(=O)Nc3ccccc3F)nnc12`, the survival was inactive: 95%.

With `CN(C(=O)c1oc(=O)c2ccccc2c1-c1ccccc1)c1cccc(Cl)c1`, the survival is inactive: 30%.

Turning to `COc1cccc(CN2CCc3nc(N4CCN(C)CC4)ncc3C2)c1`, the survival is inactive: 71%.

For the compound `CCOc1ccc(CCNC(=O)Cc2ccc(NC(=O)N3CCSc4ncccc43)cc2)cc1`, the survival is inactive: 80%.

Turning to `COc1ccc(-n2nc(C(=O)N3CCN(c4cccc(C(F)(F)F)c4)CC3)c3c4ccccc4n(C)c3c2=O)cc1Cl`, the survival was inactive: 128%.

On to `Cc1oc2ncn(C)c(=O)c2c1C(=O)NCc1ccccc1`, for which the survival was inactive: 57%.

Regarding `O=C(O)c1coc2ccccc12`, the survival is inactive: 124%.

On to `COc1cccc(N2CCN(C(=O)Cn3ncc4c5ccccc5n(C)c4c3=O)CC2)c1`, for which the survival was inactive: 76%.

For `Cc1cccc(-c2noc(-c3cc(-c4ccc(F)cc4)n[nH]3)n2)c1`, the survival is inactive: 128%.

Turning to `COc1cc(OC)cc(C(=O)Nc2nc(-c3nnn(-c4ccc(F)c(Cl)c4)c3C)ns2)c1`, the survival is inactive: 73%.

With `CCN1CCN(C(=O)c2cccc(F)c2F)CC1`, the survival was inactive: 114%.

In the case of `O=C(CSc1nc(-c2ccco2)nc2cc(=O)[nH]n12)Nc1ccccc1F`, the survival was inactive: 63%.

As for `CCN1C(=O)/C(=c2\s/c(=C3\Sc4ccc(OC)cc4N3C)c(=O)n2Cc2ccccc2)N(C)C1=S`, the survival was inactive: 100%.

Turning to `O=C(c1ccccc1Cl)N1CCN(CCc2ccccn2)CC1`, the survival is inactive: 85%.

Regarding `COc1cccc(C(=O)Nc2ccccc2-c2nnc(-c3ccc(C(C)(C)C)cc3)o2)c1`, the survival was inactive: 71%.

As for `COc1ccc2cc3cc(C(=O)Nc4ccccc4C)oc3nc2c1`, the survival was inactive: 117%.

Take `COc1ccc(NC(=O)CSc2nc(C)cc(C)c2C(=O)Nc2cccc(C)c2)cc1`: the survival was inactive: 106%.

With `C[C@@H](NC(=O)CN(c1ccccc1)S(=O)(=O)N(C)C)c1ccccc1`, the survival is inactive: 82%.

On to `CCCOC(=O)c1ccc(Nc2nc3ccccc3nc2-n2nc(C)cc2C)cc1`, for which the survival was inactive: 32%.

On to `Cc1cccc(C)c1NC(=O)NC1(C(=O)N2CCCCC2)CCCCC1`, for which the survival is inactive: 102%.

For the compound `CCOc1ccc(-c2cc(CCCC(=O)NCCc3ccc(OCC)c(OCC)c3)no2)cc1`, the survival is inactive: 83%.

Regarding `Cc1ccc(NC(=O)Nc2ccc3nc(N4CCN(C)CC4)cc(C)c3c2)cc1C`, the survival was inactive: 73%.

For the compound `CCCCCCc1nnc(NC(=O)CC)s1`, the survival is inactive: 104%.

For the compound `Cc1ccccc1NC(=O)c1ccc(F)c(S(=O)(=O)NC2CCCC2)c1`, the survival was inactive: 70%.

On to `CCN1CCN(C(=O)c2ccc3c(c2)N(Cc2ccccc2F)C(=O)c2ccccc2S3(=O)=O)CC1`, for which the survival is inactive: 90%.

Regarding `COc1cc(NS(=O)(=O)c2ccc(NC(=O)c3ccc(C(C)=O)cc3)cc2)nc(OC)n1`, the survival is inactive: 77%.

Regarding `COc1ccc(NC(=O)c2sc3nc4c(cc3c2N)CCCCCC4)cc1Cl`, the survival was inactive: 63%.

On to `CCOC(=O)c1cccc(NC(=O)N2CC(CC)Oc3ccccc32)c1` (centres undefined), for which the survival was inactive: 79%.

As to `Cc1ccc(N2CCN(C(=O)c3c(C)oc4nc(C)nc(N5CCCC5)c34)CC2)c(C)c1`, the survival was inactive: 81%.

On to `Cc1cccc(-n2ncc(C(=O)NCc3ccco3)c2C2CCN(C(=O)OC(C)(C)C)CC2)c1`, for which the survival was inactive: 81%.

With `Cc1cccc(CNC(=O)CCCN2C(=O)COc3ccc(C)cc32)c1`, the survival was inactive: 110%.

On to `CCn1c(=O)c2cc(C(=O)N(C)c3cc(Cl)c(OC)cc3OC)sc2c2ccccc21`, for which the survival is inactive: 80%.

For `Cc1nc2cccnc2n1C1CCN(S(=O)(=O)c2ccc(C(C)C)cc2)CC1`, the survival is inactive: 127%.

Take `CCc1nn(CC(=O)NCCN(CC)CC)c(=O)c2cc3occc3n12`: the survival is inactive: 125%.

With `O=C(CSc1ncc2c(n1)-c1ccccc1N(Cc1ccc(F)cc1)S2(=O)=O)NCc1ccccc1`, the survival was inactive: 76%.

For `Cc1ccc(S(=O)(=O)CCc2nc3ccccc3n2CCC#N)cc1`, the survival is inactive: 117%.

For `Cc1cn2c(=O)cc(COC(=O)c3cccc(NC(=O)COc4ccc(Cl)cc4)c3)nc2s1`, the survival was inactive: 99%.

Take `COC(=O)c1c(NC(=O)COc2ccccc2Cl)sc2c1CCC(C(C)(C)C)C2` (centres undefined): the survival is inactive: 128%.

For the compound `Cc1ccc(CCNC(=O)c2cc3sccc3n2Cc2ccc(F)cc2)cc1`, the survival is inactive: 98%.

As to `N#C/C(=C\c1ccc(Br)cc1)c1nc(-c2cc3cc(Br)ccc3oc2=O)cs1`, the survival is inactive: 69%.

Turning to `CCOC(=O)c1sc(N2N=C(C)CC2=O)nc1C`, the survival is inactive: 115%.

As to `COC(=O)c1ccc(Cl)cc1NC(=O)N1CCC(CN2CCCC2)CC1`, the survival is inactive: 71%.

Take `Cc1ccc(C(=O)c2cn(Cc3ccccc3F)c3cc4c(cc3c2=O)OCO4)cc1`: the survival was inactive: 88%.

For the compound `O=C(NCc1cccs1)c1cc2sccc2n1Cc1ccccc1`, the survival is inactive: 84%.

Take `COc1cc(/C=C(\C#N)c2nc3ccc(C)cc3[nH]2)ccc1OC(C)C`: the survival is inactive: 79%.

Turning to `CCc1ccc(S(=O)(=O)c2c[nH]c3cc(OC)c(OC)cc3c2=O)cc1`, the survival was inactive: 89%.

Consider `COc1ccc2cc3cc(C(=O)NCCc4ccccc4)sc3nc2c1Cl`, for which the survival is inactive: 73%.

With `Cc1ccccc1NC(=O)Cn1c(=O)n(-c2ccc(CC(=O)NCC3CCCO3)cc2)c(=O)c2ccccc21` (centres undefined), the survival is inactive: 90%.

On to `COc1ccc(-c2cc(C(F)(F)F)nc(NCc3ccccc3)n2)cc1`, for which the survival was active: -5%.

Turning to `CCn1nnc(NC(=O)COc2ccccc2)n1`, the survival was inactive: 113%.

For the compound `COc1cccc(NC(=O)C(=O)NCC(c2ccc3c(c2)OCO3)N2CCOCC2)c1` (centres undefined), the survival was inactive: 22%.

In the case of `O=C(Cn1c(=O)n(-c2ccc(Cl)cc2)c(=O)c2sc3ccccc3c21)NC1CCCCC1`, the survival was inactive: 81%.

On to `Fc1ccc(C(Nc2ccc(Cl)c(C(F)(F)F)c2)c2nnc(-c3ccccc3)o2)cc1` (centres undefined), for which the survival was inactive: 82%.

Take `COc1cc(OC)c(NC(=O)CCn2cccn2)cc1Cl`: the survival is inactive: 71%.

In the case of `CN(Cc1ccccc1)C(C(=O)NC1CCCCC1)c1ccc(Cl)cc1` (centres undefined), the survival was inactive: 74%.

As for `COc1cc(-c2noc(-c3ccc(N4CCOCC4)c([N+](=O)[O-])c3)n2)cc(OC)c1OC`, the survival is inactive: 84%.

On to `CCN(CCCNC(=O)CSc1cc(=O)n(C)c2cc(Cl)ccc12)c1cccc(C)c1`, for which the survival is inactive: 114%.

Take `Cc1c2cnn(-c3ccccc3)c(=O)c2c(C)n1CC(=O)N1CCN(c2ccc(F)cc2)CC1`: the survival was inactive: 80%.

For `Cc1ccc(OCC(=O)N(Cc2ccco2)Cc2ccco2)cc1`, the survival is inactive: 78%.

Take `COc1cccc(-c2nc(CS(=O)(=O)CC(=O)Nc3cc(F)ccc3F)c(C)o2)c1`: the survival was inactive: 61%.

For the compound `O=C(NCCN1CCOCC1)Nc1c[nH]c2ccccc2c1=O`, the survival was inactive: 115%.

`Cc1ccc(NC(=O)CSc2nc3ccccc3c3nc(CCn4cncc4C)nn23)c(C)c1`: the survival was inactive: 70%.

For `CCc1ccc(C(=O)c2c(N)c(-c3nc(-c4ccc5c(c4)OCO5)cs3)c3ccccn23)cc1`, the survival is inactive: 100%.

Take `Oc1c(C(c2ccc(Br)cc2)N2CCOCC2)sc2nc(-c3ccco3)nn12` (centres undefined): the survival was inactive: 49%.

For the compound `CCOc1cc(C(C#N)N2CCCCC2)ccc1OC` (centres undefined), the survival was inactive: 104%.

Take `C1CCN(c2nc(N3CCCC3)nc(N3CCNCC3)n2)C1`: the survival was inactive: 118%.

For the compound `CCS(=O)(=O)c1nc2ccccc2n1CC(=O)Nc1ccccc1C(=O)OC`, the survival was inactive: 71%.
